# Reference: PubChem BioAssay AID588855 (National Center for Advancing Translational Sciences (NCATS), 2011)
# In all, about 410,000 compounds went through this assay and about 5,000 (1.2%) were called active. The shares of active, inactive and inconclusive entries below differ from those in the screen. The call rests on the fitted dose curve; in most records, active means well fitted inhibition curve with a large enough effect; inconclusive means small, poorly fitted or top-dose-only effect; inactive means no such curve, though single readings can be large or run the other way. Potencies beside an inconclusive call are fits to weak or partial responses and may not hold up.
# Experiment: qHTS for Inhibitors of TGF-b; further: nearly all actives have a fitted effect of over 65% in size
# Settings: HepG2 CAGA-GFP TGF-b/SMAD3 reporter, GFP fluorescence, 18 h, TGF-beta stimulated, 500 pg/mL final; series mostly up to 46.1 µM; activity, negative = inhibition: at the top concentration
# Procedure, shortened: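 Read-out: total well GFP (ex488/em500-530) summed from mean per-cell fluorescence. Cells: HEPG2 CAGA-GFP, 1% FBS DMEM, 18 h at 37 degrees C with 500 pg/mL final TGF-beta. Unstimulated wells served as the full-inhibition control; stimulated DMSO wells = 0%.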
# On the % scale 0 is the no-effect control and ±100 the full control effect; potency means the concentration at half of the fitted maximal effect; tags describe the fitted curve by direction and shape.
Structure (SMILES),Potency,"activity, negative = inhibition"
CCOC(=O)N1CCN(S(=O)(=O)c2ccc(C(=O)N(CCCN(C)C)c3nc4cc(OC)ccc4s3)cc2)CC1,"inconclusive: 17.8 µM [inhibitor, single point]",
O=C(O)c1ccccc1NC(=O)c1ccccc1Nc1ccccc1,"inconclusive: 35.5 µM [inhibitor, single point]",
CC(Oc1ccc(Cl)cc1Cl)c1nc(-c2ccc(NC(=O)c3ccncc3)cc2)no1 (stereo unspecified),"inconclusive: 14.1 µM [inhibitor, single point]",
CCCCOC(=O)c1ccc(NC(=O)COC(=O)C2CSC3(C)CCC(=O)N23)cc1 (stereo unspecified),"inconclusive: 6.31 µM [inhibitor, single point]",
O=C(CCNC(=O)c1ccccc1Cl)Nc1nc(-c2ccc3ccccc3c2)cs1,"inconclusive: 35.5 µM [inhibitor, single point]",
COc1ccc(C(=O)N2CCC(c3c[nH]c4ccccc34)(c3c[nH]c4ccccc34)CC2)cc1,"inconclusive: 3.98 µM [inhibitor, full curve]",
CCc1nnc(NC(=O)c2cc(OC)c(OC)cc2[N+](=O)[O-])s1,"inconclusive: 35.5 µM [inhibitor, single point]",
Nc1nc(-c2ccco2)nn1C(=O)c1ccccc1,"inconclusive: 10 µM [inhibitor, partial curve, poor fit]",
Cc1ccc(C)c(NC(=S)c2ccc3ccccc3n2)c1,"inconclusive: 35.5 µM [inhibitor, single point]",
Cc1cccc(C)c1NC(=O)CN(C)C(C)C(=O)NCC(=O)Nc1ccc(F)c(F)c1F (stereo unspecified),,inactive: 12.6%
COc1cc2nc(NCC(C)c3ccccc3)n3nc(-c4ccccc4)nc3c2cc1OC (stereo unspecified),,inactive: 1.87%
CCOC(=O)COn1c(=O)c(-c2ccc(C)cc2)[n+]([O-])c2ccccc21,,inactive: -5.08%
CCOC(=O)[C@@H]1[C@H]2COc3ccccc3[C@H]2N2C(=O)N(c3ccccc3)C(=O)[C@]12C,,inactive: -14.4%
COc1ccc(NC(=O)CN2C(=O)c3ccccc3S2(=O)=O)cc1S(=O)(=O)N1CCOCC1,,inactive: 12.1%
CC[C@@H]1C(c2ccc(F)cc2)=NN(c2ccccc2)[C@H]1C(=O)N1CCOC1=O,"inconclusive: 22.4 µM [inhibitor, single point]",
COc1ccc(N=C2NN=C(c3ccc4c(c3)OCCO4)CS2)cc1,"inconclusive: 35.5 µM [inhibitor, single point]",
COc1ccc(-c2nc(SCC(=O)Nc3nccs3)c(-c3ccc(Cl)cc3)[nH]2)cc1,"inconclusive: 35.5 µM [inhibitor, single point]",
CCN(CC)C(=O)[C@H]1C[C@H](CC(=O)NCc2ccc(OC)c(OC)c2)C(=O)N2CCc3c([nH]c4ccc(Cl)cc34)[C@]12C,"inconclusive: 22.4 µM [inhibitor, single point]",
CCOc1ccc(CCNC(=O)C2CCCN(S(=O)(=O)c3c(C)n[nH]c3C)C2)cc1OCC (stereo unspecified),,inactive: 8.72%
CC1(C)C2CC=C(/C=N/NC(=O)c3ccccc3O)C1C2 (stereo unspecified),,inactive: -17.9%
CSc1ccc(C(=O)C2CCCN(C(=O)c3ccc4c(c3)OCO4)C2)cc1 (stereo unspecified),,inactive: -2.6%

Structure (SMILES),Potency,"activity, negative = inhibition"
COc1ccc(-c2cc3c(nn2)-c2ccccc2C3=O)cc1,,inactive: 2.19%
COc1ccc(CNC(=O)Cn2cnc3c(NCc4ccccc4)ncnc32)cc1,,inactive: -9.43%
N#Cc1ccc(NS(=O)(=O)c2ccc(-c3cnc(C4CC4)o3)cc2)cc1,"inconclusive: 35.5 µM [inhibitor, partial curve, poor fit]",
Cc1ccc(NC(=O)c2ccc(Br)cc2)c(C(=O)c2ccccc2)c1,"inconclusive: 7.08 µM [inhibitor, partial curve, poor fit]",
O=C(CCN1C(=O)C2C3CCC(C3)C2C1=O)Nc1cccc(Cl)c1 (stereo unspecified),,inactive: -19%
CCCCCCCCNC(=O)c1cccnc1SCC(=O)Nc1ccccc1OC,,inactive: -9.14%
COC(=O)CSc1nnc(NC(=O)/C=C\c2ccc3c(c2)OCO3)s1,"inconclusive: 0.316 µM [inhibitor, full curve, poor fit]",
CCOC(=O)c1c(C(C)(C)C)oc2ccc(O)cc12,"inconclusive: 35.5 µM [inhibitor, single point]",
c1ccc2nc(-c3ccc(N4CCOCC4)cc3)ccc2c1,"inconclusive: 4.47 µM [inhibitor, full curve, poor fit]",
O=C(OCC(=O)N1CCN(C(=O)c2ccco2)CC1)c1cc(-c2ccco2)nc2ccccc12,"inconclusive: 6.31 µM [inhibitor, partial curve, poor fit]",
O=C1c2ccccc2C(=O)c2c(/C=C/N3CCCCC3)ccnc21,"inconclusive: 2.82 µM [inhibitor, single point]",
CC1(C(=O)NS(=O)(=O)c2cccc(C#N)c2)CCN1C(=O)Cc1ccc(-c2ccccc2)cc1 (stereo unspecified),"inconclusive: 5.62 µM [inhibitor, single point]",
CCOc1cc(NC(=O)C2CC2)c(OCC)cc1NC(=O)c1ccccn1,,inactive: -0.371%
CN(c1ccc(C(=O)NCC2CCCO2)cc1)S(=O)(=O)c1ccccc1 (stereo unspecified),"inconclusive: 3.16 µM [inhibitor, single point]",
COc1ccccc1NC(=O)CN(Cc1ccco1)C(=O)c1cccs1,"inconclusive: 15.8 µM [inhibitor, partial curve, poor fit]",
COCCn1c(=NC(=O)CCS(=O)(=O)c2ccccc2)sc2ccccc21,"inconclusive: 0.891 µM [inhibitor, full curve]",
CC1C(=O)N(Cc2cn(CCC3OCCO3)nn2)CCS(=O)(=O)N1Cc1ccc(-c2ccc(Cl)c(Cl)c2)cc1 (stereo unspecified),"inconclusive: 35.5 µM [inhibitor, single point]",
CCOC(=O)c1sc(NC(=O)c2cc3nc(-c4ccc(Br)cc4)cc(C(F)(F)F)n3n2)c(C(=O)OCC)c1C,"inconclusive: 7.08 µM [inhibitor, full curve, poor fit]",
O=C(NCc1ccncc1)c1ccc(N2CCCC2)c([N+](=O)[O-])c1,,inactive: 2.97%
COc1ccc(CN(C(=O)Cc2c[nH]c3ccccc23)C(C(=O)NC2CCCCC2)c2ccc(C)o2)cc1 (stereo unspecified),"inconclusive: 12.6 µM [inhibitor, partial curve, poor fit]",
